From PubChem BioAssay AID493131 (Broad Institute, 2011)
Among all 340,000 compounds or so, about 3,300 (0.97%) were called active. This list was built around the results that the source calls inconclusive (neither active nor inactive); the mix of calls is not that of the screen.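 The calls were made as follows: active = mean activation above about 17%, with every replicate also reaching it (limit read from the data, passing the limit was not always enough); inconclusive = only one of the two conditions met; inactive = the rest.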

target: Protein FosB (Mus musculus) (UniProt P13346); test: enhancers of mouse delta FosB DNA binding – biochemical, fluorescence polarization, TAMRA-CDK5 oligo, single point, primary screen (AID 493131); details: purified delta FosB, at 25 µM, hits give high values, percent of positive-control signal above neutral wells;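 also: fluorescence polarization rise as delta FosB binds a TAMRA Cdk5 AP-1 oligo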
UniProt P13346, sequence (P13346 whole entry, looked up): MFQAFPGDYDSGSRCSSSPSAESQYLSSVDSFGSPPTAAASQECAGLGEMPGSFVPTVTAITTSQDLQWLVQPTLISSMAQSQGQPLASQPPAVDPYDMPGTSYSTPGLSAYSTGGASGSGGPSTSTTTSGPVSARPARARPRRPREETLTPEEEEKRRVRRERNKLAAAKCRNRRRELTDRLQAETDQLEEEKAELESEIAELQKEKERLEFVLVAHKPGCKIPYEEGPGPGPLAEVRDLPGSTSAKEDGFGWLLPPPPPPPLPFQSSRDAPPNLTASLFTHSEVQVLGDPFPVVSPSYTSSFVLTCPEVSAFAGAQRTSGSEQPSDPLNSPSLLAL

Row | Compound | activation
1 | Cc1ccc(/C=N/NC(=O)c2nnn(-c3nonc3N)c2CSc2ccccc2)cc1 | active: 23.9%
2 | O=C(CSc1nc(-c2ccco2)cc(C(F)(F)F)n1)Nc1ccc2c(c1)OCO2 | inconclusive: 20.8%
3 | COc1ccccc1CCNC(=O)c1ccc(NC(=O)CC2SC(N3CCCCC3)=NC2=O)cc1 (stereo not drawn) | inactive: -10%
4 | O=S(=O)(c1ccccc1)N1CCN(c2nnnn2-c2ccccc2)CC1 | inconclusive: 20.4%
5 | Cc1ccc(NC(=O)Cn2nc(C)c([N+](=O)[O-])c2C)cc1Cl | active: 27.8%
6 | COc1ccc(C(=O)Nc2ccccc2C(=O)N/N=C/c2ccco2)cc1 | inconclusive: 23.7%
7 | Cc1ccc(C(=O)NNC(=O)Cn2ccc(C(F)(F)F)n2)o1 | inactive: -2.12%
8 | CN(C)CCN(C(=O)c1ccco1)c1nc2cc3c(cc2s1)OCCO3 | active: 30.2%
9 | Cc1cccc(OCCSc2nc3ccccc3n2CC(=O)O)c1 | inactive: 0.615%
10 | COc1ccccc1CNC(=O)COC(=O)c1cccnc1SCC(=O)NCc1ccccc1OC | active: 40.5%
11 | COC(=O)Cn1c(=NC(=O)c2nc3ccccc3s2)sc2cc(S(N)(=O)=O)ccc21 | inconclusive: 17.2%
12 | CCOC(=O)Nc1ccc2c(COC(=O)CNS(=O)(=O)c3cccc(Br)c3)cc(=O)oc2c1 | inconclusive: 18.1%
13 | Cc1ccc(NC(=S)NC(NC(=O)Cc2cccc3ccccc23)C(Cl)(Cl)Cl)cc1 (stereo not drawn) | inconclusive: 22.6%
14 | CC(C)(C)OC(=O)C[C@H]1C/C=C\C[C@@H](CC(=O)N[C@@H](CO)Cc2ccccc2)C(=O)NC[C@H](c2ccccc2)OC1=O | inconclusive: 20.8%
15 | Cc1cccc(/C=N/NC(=O)c2cc(Br)ccc2OCc2ccccc2)n1 | inactive: -12.2%
16 | CCc1nc(Nc2ccc3nccnc3c2)c2oc3ccccc3c2n1 | inconclusive: 30.7%
17 | O=C(/C=C/c1ccccc1)NC(NC(=S)Nc1ccc(Cl)cc1)C(Cl)(Cl)Cl (stereo not drawn) | active: 23.9%
18 | Cc1cc(=O)[nH]c(SCC(=O)/C=C2\N(C)c3ccccc3C2(C)C)n1 | inconclusive: 16.1%
19 | O=C(CC1Sc2ccccc2NC1=O)NNc1cccc(Cl)c1Cl (stereo not drawn) | inconclusive: 27.1%
20 | Cc1cc(C(=O)NCC(=O)O)c(C)o1 | inactive: 0.538%
21 | CC1CCCN(Cc2c(O)ccc3c(=O)c(-c4nc5ccccc5s4)c(N)oc23)C1 (stereo not drawn) | inconclusive: 16%

Row | Compound | activation
22 | N=c1c2c(ncn1Cc1ccco1)Oc1ccc3ccccc3c1C2c1ccccc1 (stereo not drawn) | inconclusive: 17%
23 | OCCNc1nc(Nc2ccc(O)cc2)nc2ccccc12 | active: 19.4%
24 | COc1ccc(C2Nc3cccc4cccc(c34)N2)cc1 | inconclusive: 36.7%
25 | CSc1nsc(SCC(=O)Nc2nc3ccc(C)cc3s2)n1 | inconclusive: 16.8%
26 | COc1cc(/C=N/NC(=O)c2ccncc2)ccc1OCC(=O)Nc1cccc([N+](=O)[O-])c1 | inconclusive: 20.8%
27 | CCOc1cc(C(=O)Nc2ccc3c4c(cccc24)C(=O)N3CC)cc(OCC)c1OCC | active: 24.1%
28 | O=C(Nc1ccc(NC(=O)c2cccs2)cc1)c1ccc2ccccc2c1 | inconclusive: 18.1%
29 | CCCc1c(NC(=O)Nc2ccc(Cl)cc2Cl)cnn1-c1ccccc1 | inconclusive: 16.8%
30 | O=[N+]([O-])c1ccc2c(c1)C(=NO)c1cc(Cl)c(Cl)cc1-2 | inconclusive: 18.4%
31 | CC1(C)CC(=O)C2=C(C1)Nc1cc3c(cc1C2c1ccc2c(c1)OCO2)OCO3 (stereo not drawn) | inactive: -3.06%
32 | CCn1c(SCC(=O)NC2CCCCC2)nc2c(c1=O)SCC2 | inactive: -6.99%
33 | O=C(COC(=O)CCCCCN=C1NS(=O)(=O)c2ccccc21)Nc1ccc(Cl)c(Cl)c1 | inconclusive: 17.7%
34 | CCc1nc2c(C#N)c(-c3ccc(Cl)cc3)ccn2n1 | inconclusive: 17.4%
35 | Cc1cc(Nc2ccc(N3CCOCC3)cc2)c2cccc(C)c2n1 | inconclusive: 16.4%
36 | C#CCOCCOCCOCCNc1nc(N2CCN(C(=O)CCCCCCCCCCNC(=O)Cn3cc(CCCCCN)nn3)CC2)nc(N2CCN(C(=O)CCCCCCCCCCNC(=O)Cn3cc(C[C@@H](C)O)nn3)CC2)n1 | inconclusive: 20.1%
37 | Cc1nc2cc(NC(=O)NCCCO)ccc2o1 | inactive: -6.52%
38 | COc1ccc(-n2nnc3c(=O)n(CC(=O)Nc4cc(C)on4)cnc32)cc1 | inconclusive: 16.6%
39 | NC(=O)c1ccsc1NC(=O)COC(=O)Cc1n[nH]c(=O)c2ccccc12 | inconclusive: 39.9%
40 | Cc1cccc(NC(=O)CCCN2C(=O)c3cccc4cccc(c34)C2=O)c1 | inconclusive: 18%
41 | CC(OC(=O)c1cc2ccccc2cc1O)C(=O)Nc1ccc(S(N)(=O)=O)cc1 (stereo not drawn) | active: 25.4%
42 | Cc1ccccc1OCCOc1ccc([N+](=O)[O-])cc1/C=N/n1cnnc1 | inconclusive: 17.7%

Row | Compound | activation
43 | Cc1sc(NC(=O)Cn2[nH]c(=O)c3ccccc3c2=O)nc1-c1ccccc1 | inconclusive: 16.1%
44 | O=C(CSc1nnc(CNc2ccc(Cl)cc2)o1)Nc1nc2ccccc2s1 | inconclusive: 16.2%
45 | Cc1ccc(NC(=O)c2cc(S(=O)(=O)N3CCCCC3)c[nH]2)cc1C | inconclusive: 16%
46 | CCN1CCCc2cc(CN(CCN3CCOCC3)C(=S)Nc3cccc(Cl)c3)ccc21 | inactive: -8.1%
47 | CCOC(=O)Nc1ccc(S(=O)(=O)NCc2ccccc2)cc1 | inactive: 14.4%
48 | C/C(=N\Nc1cc(C)nc(NCc2ccccc2)n1)c1ccc([N+](=O)[O-])cc1 | active: 29.7%
49 | COc1cccc(CNC(=O)CCCn2c(=S)[nH]c3cc4c(cc3c2=O)OCO4)c1 | active: 32.2%
50 | CCOC(=O)c1c(C)[nH]c(C(=O)OC(C)C(=O)Nc2ccccc2OC)c1C (stereo not drawn) | inconclusive: 20.4%
51 | CC(=O)Nc1ccc(NC(=O)c2ccc(S(=O)(=O)N(C)c3ccccc3)cc2)cc1 | inconclusive: 17.9%
52 | Nc1ccc2nc(CCCCCCc3nc4ccc(N)cc4[nH]3)[nH]c2c1 | inactive: 5.23%
53 | COc1ccc(/C=C2\SC(=S)N(CCC(=O)Nc3ccccc3C(=O)O)C2=O)cc1 | inactive: 0.612%
54 | CCCC1S/C(=N/N=C/c2ccc(OC)cc2)N(Cc2ccccc2)C1=O (stereo not drawn) | inactive: -8.21%
55 | Cc1ccsc1/C=C1/SC(=O)N(CC(=O)N2CCOCC2)C1=O | inactive: 1.22%
56 | COc1ccc2oc(C(=O)OCC(=O)Nc3ccc(NC(C)=O)cc3)c(C)c2c1 | active: 35.7%
57 | NS(=O)(=O)c1ccc(NC(=O)Nc2ccc(Cl)cc2)cc1 | inactive: 3.45%
58 | CCOc1ccc(C2c3[nH]c4ccccc4c3C[C@H]3C(=O)N(C4CCN(Cc5ccccc5)CC4)CC(=O)N23)cc1OC (stereo partly drawn) | active: 34.7%
59 | NC(=O)CC(NC(=O)c1ccccc1)c1ccc(NCCOc2ccccc2)c([N+](=O)[O-])c1 (stereo not drawn) | active: 26.3%
60 | CC(=O)c1c(C)[nH]c(C(=O)COC(=O)c2nccnc2N)c1C | inactive: -2.43%
61 | Cc1ccc(CCS(=O)(=O)c2ccc(C(C)(C)C)cc2)cn1 | inactive: 3.26%
62 | COC(=O)COc1cccc2c(=O)n(CC(=O)NCCc3ccccc3)ccc12 | inconclusive: 19.1%
63 | COC(=O)C(O)(NC(=O)c1ccncc1)C(F)(F)F (stereo not drawn) | inactive: 1.95%

Row | Compound | activation
64 | Cc1ccc(C)c(NC(=O)CN(C)C(=O)C2CCN(S(=O)(=O)c3ccc4c(c3)OCCO4)CC2)c1 | inactive: -0.51%
65 | O=c1[nH]c(C2CCCN(S(=O)(=O)Cc3ccccc3)C2)nc2c1nnn2Cc1cccc(Cl)c1 (stereo not drawn) | inconclusive: 23.2%
66 | O=C(Cc1csc(NC(=O)Nc2ccc(Cl)cc2)n1)NC1CCCC1 | inconclusive: 16.7%
67 | COc1cc(C(=O)NCc2ccc(C)cc2)ccc1OC(F)F | inactive: -4.01%
68 | Cc1cc2cc(CNC(=O)c3ccc(S(=O)(=O)N4CCCCC4)cc3)ccc2n1C | active: 33%
69 | COc1ccc(/C=N/Nc2nc(Nc3ccccc3)nc(N3CCCCC3)n2)c(OC)c1 | inconclusive: 20.3%
70 | O=C(OCc1nc2ccccc2s1)c1ccc([N+](=O)[O-])o1 | inactive: -6.41%
71 | Cc1ccc(COc2ccsc2C(=O)NNC(N)=S)cc1 | active: 28.5%
72 | O=C(Cc1cccc2ccccc12)Nc1ccc2c(c1)C(=O)NC2=O | inconclusive: 19.9%
73 | N=c1c(C(=O)NCc2ccc(F)cc2)cc2c(=O)n3ccccc3nc2n1Cc1ccco1 | inconclusive: 20.5%
74 | COc1cc2[nH]c(=O)n(Cc3ccccc3Cl)c(=O)c2cc1OC | inconclusive: 20.3%
75 | CSc1ccc(CNC(=O)c2c(C)noc2C)s1 | inactive: -2.48%
76 | O=C(COc1ccc(-c2nnco2)cc1)N1CCN(S(=O)(=O)c2ccc3ccccc3c2)CC1 | inconclusive: 19.7%
77 | COc1ccc2sc(N(CCCN(C)C)C(=O)c3ccc(S(=O)(=O)N4CCc5ccccc5C4)cc3)nc2c1 | active: 32.6%
78 | O=C(COC(=O)/C=C/c1ccc([N+](=O)[O-])cc1)Nc1ccc(F)cc1 | active: 19.1%
79 | O=C(Cc1nnc(NC(=O)Nc2ccc(F)cc2)s1)Nc1ccccc1 | inconclusive: 20.3%
80 | Nc1c(C(=O)CSc2n[nH]c(-c3ccccc3Br)n2)c(=O)[nH]c(=O)n1C1CC1 | inconclusive: 17.4%
81 | C[C@@H](O)C1NC(=O)[C@H](CCCCN)NC(=O)c2cc([N+](=O)[O-])cc(F)c2NCCCC[C@@H](C(N)=O)NC1=O (stereo partly drawn) | inconclusive: 26.6%
82 | CCCc1ccc(-c2cc(C(=O)NC3=NCCS3)c3ccccc3n2)cc1 | inconclusive: 29.1%
83 | CC(=O)Nc1ccc(NC(=O)Cn2nc(C(=O)Nc3ccc(C)cc3)ccc2=O)cc1 | inconclusive: 19.9%
